About 930 (0.24%) of roughly 390,000 compounds were called active. Inconclusive means that the source gave no clear call. Such entries were picked first, then a sample of the others. Calls come from the whole dose curve; as a rule, active = well fitted activation curve with a large enough effect; inconclusive = small, poorly fitted or top-dose-only effect; inactive = no such curve, though single readings can be large or run the other way. A potency beside an inconclusive call is a rough fit, not a confirmed value.
Test: qHTS for Suppressors of FUS Proteinopathy: Primary screen using FUS-linked yeast assay; note: nearly all actives have a fitted effect of over 55% in size;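 for growth rescue (activation): plate controls were DMSO vehicle for no effect and reference control for full effect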
Settings: S. cerevisiae FUS-expressing, OD600, 24 h; Potency: growth rescue; growth rescue (activation): at 76.6 µM (top of the series)
In short: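 FUS-expressing yeast, raffinose-pregrown, induced in 2% galactose minimal medium at OD 0.005; compounds in a dilution series, 24hr at 30C. Growth restoration read as absorbance at 600 nm. CP55940 positive control, DMSO negative.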
Potency is the fitted concentration of half-maximal effect; tags give direction and shape of the fitted curve.

SMILES	Potency	growth rescue (activation)
CCCCCC(=O)Nc1cccc(C2=NOC3(C2)C[C@H](C(N)=O)N(C(=O)c2ccccc2C(=O)c2ccccc2)C3)c1 (some centres undefined)	inconclusive: 39.8 µM [activator, single point]	
C[C@@H]1COC(=O)[C@H](NC(=O)OCC2c3ccccc3-c3ccccc32)C/C=C\C[C@@H](CC(=O)N[C@H](CO)Cc2ccccc2)C(=O)N1	inconclusive: 20 µM [activator, partial curve, poor fit]	
CC(=O)OC[C@@H]1CN(Cc2ccccc2)C[C@H](n2cnc3c(N4CCN(c5ccccc5)CC4)ncnc32)O1	inactive	
COc1ccc(-c2nc(C)c(CCNS(=O)(=O)c3cc(C)c(C)cc3C)s2)cc1	inconclusive: 8.91 µM [activator, partial curve]	
COC/C=C/C1=CC2=CC(=O)C(C)(OC(=O)c3cnc4ccccc4n3)C(=O)C2=CN1CC(C)C (centres undefined)	inconclusive: 35.5 µM [activator, single point]	
Cc1ccc2c(c1)-c1c(cnc3cc(-c4ccccc4)nn13)CO2	inactive	
Cc1cc(C(=O)COC(=O)CC2Sc3ccccc3NC2=O)c(C)n1-c1ccc2c(c1)OCO2 (centres undefined)	inconclusive: 28.2 µM [activator, single point]	
Cc1ccc(NC(=O)CSc2nnc(-c3ccco3)c(-c3ccco3)n2)cc1	inconclusive: 14.1 µM [activator, partial curve, poor fit]	
CCOC(=O)Cn1c(=O)n(-c2ccccc2OC)c2nc(-c3cccc(F)c3)nc(C(N)=O)c21	inconclusive: 8.91 µM [activator, partial curve]	
Oc1ccc(N=Nc2ccccc2)cc1	inactive	
CCOC(=O)CCCCCC(=O)Nc1ccc2c(c1)C(=O)N([C@@H](C)CO)C[C@@H](C)[C@H](CN(C)C(=O)Nc1ccccc1)OCCCC[C@H](C)O2	inconclusive: 20 µM [activator, partial curve, poor fit]	
COC(=O)c1ccc(C(NC(=O)OCc2ccccc2)/C(F)=C/[C@@H](C)C(=O)NCc2ccc(OC)c(OC)c2)cc1 (some centres undefined)	inconclusive: 50.1 µM [activator, single point]	
CCN(CC)c1cc2c(cc1F)c(=O)c(S(=O)(=O)c1ccc(OC)cc1)cn2CC	inactive	
Cc1ccccc1Oc1ccc2c(c1)[C@@H]1C[C@H](N(C)C(=S)Nc3ccc(F)cc3)[C@H]([C@H](C)O)C(=O)N1CC2	inconclusive: 50.1 µM [activator, single point]	
Cc1ccccc1-n1c(SCc2ccc(Cl)cc2)nc2[nH]ncc2c1=O	inconclusive: 44.7 µM [activator, single point]	
COc1cccc(N2CCN(C(=O)CCc3c(C)nc4c(c3C)c(=O)n(C)c(=O)n4C)CC2)c1	inactive	
CCCCNC(=S)NNC(=O)c1ccco1		inconclusive: 56.1% [activator]
CCOC(=O)c1ccc(N2C(=O)c3[nH]nc(-c4ccc(OCC)cc4)c3C2c2ccc(OC)cc2OC)cc1 (centres undefined)	inconclusive: 35.5 µM [activator, single point]	
COc1cc(C(=O)C(=O)N2CCC(Cc3ccccc3)CC2)cc2ccccc12	inactive	
COc1cc(NC(=O)C2CCCN(S(=O)(=O)c3cccc4cccnc34)C2)cc(OC)c1 (centres undefined)	inconclusive: 17.8 µM [activator, partial curve, poor fit]	

SMILES	Potency	growth rescue (activation)
CCc1ccc(CNC(=O)CCCN2C(=O)c3cccnc3Oc3ccc(Cl)cc32)cc1	inconclusive: 22.4 µM [activator, single point]	
CCOc1ccc2c(c1)c1nnc(SCC(=O)N3CCCCC3C)nc1n2C (centres undefined)	inactive	
CCCCSc1nc(NCc2ccco2)c2c3c(sc2n1)COC(C)(C)C3	inactive	
CCCCCCCCN1C(=O)[C@@H](CC(=O)NCCc2ccccc2OC)C[C@@]2(C(=O)OC)C1=C[C@H](C(C)C)O[C@@H]2C1CC1	inconclusive: 6.31 µM [activator, partial curve]	
Cc1cc(C(=O)N[C@H](c2ccccc2)[C@@]2(C)C[C@@H]2[C@@H](C)C(=O)Nc2ccc3ccccc3c2)n(C)n1	inconclusive: 28.2 µM [activator, single point]	
Cn1cnc(S(=O)(=O)N2CCC(C(=O)NCc3ccc(Cl)cc3)CC2)c1	inactive	
C[C@H]1CN([C@@H](C)CO)C(=O)Cc2cc(NC(=O)Cc3ccccc3)ccc2O[C@H]1CN(C)C(=O)Nc1cccc2ccccc12	inconclusive: 35.5 µM [activator, partial curve, poor fit]	
Cc1nn(-c2ccccc2)c(C)c1/C=N/Nc1nc2ccccc2[nH]1	inconclusive: 35.5 µM [activator, single point]	
Cc1c(C(=O)NCCC2=CCCCC2)oc2ccc(S(=O)(=O)N3CCC4(CC3)OCCO4)cc12	inconclusive: 22.4 µM [activator, partial curve, poor fit]	
O=C(Nc1cccnc1)c1cc(-c2ccco2)on1		inconclusive: 100% [activator]
O=C(CSc1nc(-c2ccccc2)[nH]c1-c1ccccc1)Nc1ccc2c(c1)OCCO2	inconclusive: 31.6 µM [activator, single point]	
COc1ccc(NC(=O)N(C)C[C@H]2OCCCC[C@H](C)Oc3ccc(NC(=O)Nc4ccc5c(c4)OCO5)cc3C(=O)N([C@@H](C)CO)C[C@@H]2C)cc1	inconclusive: 17.8 µM [activator, partial curve, poor fit]	
COc1ccccc1C(=O)N1CCN(c2nc3cc(C)c(C)cc3cc2C#N)CC1	inconclusive: 22.4 µM [activator, single point]	
Cc1cccc(Nc2nc(N)c([N+](=O)[O-])c(N3CC(C)CC(C)C3)n2)c1 (centres undefined)	inactive	
COc1ccc([N+](=O)[O-])cc1NS(=O)(=O)c1ccc(C)cc1	inactive	
COc1cccc(C(=O)OCCN2C(=O)c3ccccc3C2=O)c1OC	inactive	
C=CCC[C@H](Cc1ccc(F)cc1)C(=O)OC[C@@H](NC(=O)[C@@H](CC=C)CC(=O)N[C@H](CO)Cc1ccccc1)C(C)(C)C	inconclusive: 11.2 µM [activator, partial curve]	
CC(C)c1cc(C(C)C)c(S(=O)(=O)NC(c2ccccn2)C23CC2C3)c(C(C)C)c1 (centres undefined)	inconclusive: 35.5 µM [activator, single point]	
Cc1cc2c(NC(=O)Nc3ccc(C(C)(C)C)cc3)cccc2nn1	inconclusive: 50.1 µM [activator, single point]	
Cc1ccc(-n2ncc3c(NC4CCCCC4)ncnc32)cc1	inactive	

SMILES	Potency	growth rescue (activation)
COc1cc(C2C3CN(C)CC=C3C(C#N)=C(N)C2(C#N)C#N)ccc1OC(C)C (centres undefined)	inactive	
O=C1COc2cc(S(=O)(=O)CCC(=O)N3CCN(c4cccc(Cl)c4)CC3)c(Cl)cc2N1	inconclusive: 35.5 µM [activator, partial curve, poor fit]	
CCC(C)NC(=O)c1sc2nc(C)c(C(=O)Nc3ccc(C)cc3C)c(-c3ccc(Cl)cc3)c2c1N (centres undefined)	inconclusive: 28.2 µM [activator, single point]	
Cc1nn(CC(=O)NCCc2ccccc2Cl)c(=O)c2nn(-c3ccccc3)c(C)c12	inconclusive: 28.2 µM [activator, partial curve, poor fit]	
O=S(=O)(c1ccccc1)N1CCC(c2ccncc2)CC1	inconclusive: 28.2 µM [activator, single point]	
COc1cc(-c2noc(C3CC(=O)N(c4ccc5c(c4)OCCO5)C3)n2)cc(OC)c1OC (centres undefined)	inconclusive: 35.5 µM [activator, single point]	
O=C(Cc1ccccc1)N1CCCC(c2nc(-c3ccc(S(=O)(=O)N4CCCC4)cc3)no2)C1 (centres undefined)	inconclusive: 17.8 µM [activator, partial curve]	
CC(C)C[C@H]1CNC(=S)N1CC1CCCN1C[C@H](Cc1ccc(O)cc1)N1C[C@H](Cc2ccccc2)N(CC2CCCCC2)C1=S (some centres undefined)	inconclusive: 28.2 µM [activator, single point]	
CCc1ccc(NC(=O)c2cc3c(=O)n(Cc4cccs4)ccc3nc2C)cc1	inconclusive: 44.7 µM [activator, single point]	
Cc1cc(C)n2c(Nc3ccc4c(c3)OCCO4)c(-c3ccc(F)cc3)nc2n1	inconclusive: 50.1 µM [activator, single point]	
CCN(CC)C(=O)CC[C@@H]1CC[C@]2(CCCN(Cc3cccnc3)C2)O1	inactive	
COc1ccc(-c2cc(C(=O)Nc3c(Cl)cccc3Cl)no2)cc1OC	inactive	
COc1ccc2c(c1)c(=O)c(S(=O)(=O)c1ccc(C)c(C)c1)cn2CC(=O)Nc1ccccc1	active: 12.6 µM	
COc1ccc(-c2c(-c3cc(OC)cc(OC)c3)n(C)c3ccc(-c4cccc5[nH]ccc45)cc23)cc1	inconclusive: 17.8 µM [activator, partial curve, poor fit]	
CCOC(=O)Cc1cc(=O)c2c(=O)n(-c3ccccc3)[nH]c2[nH]1	inconclusive: 20 µM [activator, partial curve, poor fit]	
COc1ccc(NC(=O)c2cc(-c3cc(Cl)ccc3OC)n[nH]2)c(OC)c1	inconclusive: 39.8 µM [activator, single point]	
CNS(=O)(=O)c1cn(CC(=O)Nc2ccc(C)cc2C)cc1S(=O)(=O)NC	inactive	
O=C(CCN1C(=O)C2CCCCC2C1=O)Nc1ccc(Br)cc1F (centres undefined)	inconclusive: 50.1 µM [activator, single point]	
CCCCC(=O)N1C/C=C\C(c2ccc(OC)cc2)N(Cc2ccc(F)cc2)C(=O)[C@H]1Cc1ccccc1 (some centres undefined)	inconclusive: 15.8 µM [activator, partial curve]	
